Like-named read-outs stand apart in the source and are kept apart here. Results are given in words; binding and its absence hold for the method and conditions named. Binding seen in cells or lysates may run through a third protein. Some results given as binding are weak or reduced against the parent protein; the word gives no strength. For some assays here: Where a sequence is shown, tags or fusion partners need not be part of it.

Amino acid sequences for entries named in this document (tags omitted). Residues count along the entry.
UniProt Q9LVE2: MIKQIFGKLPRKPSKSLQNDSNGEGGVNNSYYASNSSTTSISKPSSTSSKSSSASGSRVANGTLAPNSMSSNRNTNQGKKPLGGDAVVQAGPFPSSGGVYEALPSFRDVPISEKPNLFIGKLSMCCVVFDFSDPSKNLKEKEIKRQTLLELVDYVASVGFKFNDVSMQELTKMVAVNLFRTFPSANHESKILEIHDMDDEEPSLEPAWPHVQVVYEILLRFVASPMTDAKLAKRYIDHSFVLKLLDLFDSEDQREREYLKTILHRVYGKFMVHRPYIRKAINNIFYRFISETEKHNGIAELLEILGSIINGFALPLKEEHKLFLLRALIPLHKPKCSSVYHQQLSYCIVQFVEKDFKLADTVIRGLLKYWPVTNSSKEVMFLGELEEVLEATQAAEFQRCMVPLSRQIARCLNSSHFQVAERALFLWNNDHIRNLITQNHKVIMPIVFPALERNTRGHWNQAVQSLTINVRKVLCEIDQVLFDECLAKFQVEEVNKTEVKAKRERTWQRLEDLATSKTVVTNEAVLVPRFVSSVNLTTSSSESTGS
UniProt P93033, residues 29-492: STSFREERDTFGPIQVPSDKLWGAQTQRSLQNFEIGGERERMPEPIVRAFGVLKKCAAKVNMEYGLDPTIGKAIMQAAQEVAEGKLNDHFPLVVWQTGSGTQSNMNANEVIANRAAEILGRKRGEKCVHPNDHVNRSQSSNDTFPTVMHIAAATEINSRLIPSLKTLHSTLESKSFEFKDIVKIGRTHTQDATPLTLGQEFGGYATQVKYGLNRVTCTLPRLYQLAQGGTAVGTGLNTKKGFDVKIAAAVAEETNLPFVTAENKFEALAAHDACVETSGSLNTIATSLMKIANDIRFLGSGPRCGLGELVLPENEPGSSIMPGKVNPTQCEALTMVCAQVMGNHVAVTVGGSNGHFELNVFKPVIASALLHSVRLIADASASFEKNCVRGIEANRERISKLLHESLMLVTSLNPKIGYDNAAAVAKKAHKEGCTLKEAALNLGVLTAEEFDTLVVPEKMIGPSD

For assay [1], the target named is PP2A regulatory subunit B’ζ fused to the C-terminal part of Venus (pUC-VYCE C155 construct) (Arabidopsis thaliana) (UniProt Q9LVE2). Put plainly: split reporter; BiFC with split Venus (VYNE N173 / VYCE C155), gene gun delivery into onion epidermal cells, analysed one to two days after bombardment, at least three independent experiments.
Assay [2] deals with PP2A regulatory subunit B’ζ fused to the C-terminal part of Venus (kanII-VYCE C155 construct) (Arabidopsis thaliana) (UniProt Q9LVE2). Put plainly: split reporter; BiFC with split Venus (VYNE N173 / VYCE C155), transient expression in N. benthamiana leaves by Agrobacterium infiltration, analysed two days post infiltration, at least three independent experiments.
Assay [3] has the same target. The assay is described as above. This is another data set of the same source.
The target of assay [4] is PP2A regulatory subunit B’ζ fused to the C-terminal part of Venus (pUC-VYCE C155 construct) (Arabidopsis thaliana) (UniProt Q9LVE2). The experiment in a line: split reporter; BiFC with split Venus (VYNE N173 / VYCE C155), gene gun delivery into onion epidermal cells, analysed one to two days after bombardment, at least three independent experiments. This is another data set of the same source.

Turning to “fumarase (FUM1) fused to the N-terminal Venus fragment (pUC-VYNE N173 construct) (from UniProt P93033 29-492) (enzyme)”, the binding entry in assay [1] is “no binding”.
Turning to “fumarase (FUM1) fused to the N-terminal Venus fragment (hygII-VYNE N173 construct) (from UniProt P93033 29-492) (enzyme)”, the binding entry in assay [2] was “no binding”.

B1: succinate dehydrogenase (SDH2-1) fused to the N-terminal Venus fragment (hygII-VYNE N173 construct) (enzyme, UniProt Q8LBZ7 29-279)
chain: TSTGAEAETKASSGGGRGSNLKTFQIYRWNPDNPGKPELQNYQIDLKDCGPMVLDALIKIKNEMDPSLTFRRSCREGICGSCAMNIDGCNGLACLTKIQDEASETTITPLPHMFVIKDLVVDMTNFYNQYKSIEPWLKRKTPASVPAKEILQSKKDRAKLDGMYECILCACCSTSCPSYWWNPESYLGPAALLHANRWISDSRDEYTKERLEAIDDEFKLYRCHTILNCARACPKGLNPGKQITHIKQLQR
B1: in assay [3], the binding result is listed as “no binding”.

B2: succinate dehydrogenase (SDH2-1) fused to the N-terminal Venus fragment (pUC-VYNE N173 construct) (enzyme, UniProt Q8LBZ7 29-279)
chain: B1 chain
As for B2, in assay [4], the binding entry is recorded as “no binding”.

B3: aconitase (ACO3) fused to the N-terminal Venus fragment (pUC-VYNE N173 construct) (enzyme, UniProt Q9SIB9 79-990)
chain: VSPVLDRLQRTFSSMASEHPFKGIFTTLPKPGGGEFGKFYSLPALNDPRVDKLPYSIRILLESAIRNCDNFQVTKEDVEKIIDWEKTSPKQVEIPFKPARVLLQDFTGVPAVVDLACMRDAMNKLGSDSNKINPLVPVDLVIDHSVQVDVARSENAVQANMELEFQRNKERFAFLKWGSTAFQNMLVVPPGSGIVHQVNLEYLGRVVFNTKGLLYPDSVVGTDSHTTMIDGLGVAGWGVGGIEAEATMLGQPMSMVLPGVVGFKLAGKMRNGVTATDLVLTVTQMLRKHGVVGKFVEFYGNGMSGLSLADRATIANMSPEYGATMGFFPVDHVTLQYLKLTGRSDETVAMIEAYLRANNMFVDYNEPQQDRVYSSYLELNLDDVEPCISGPKRPHDRVTLKEMKADWHSCLDSKVGFKGFAIPKEAQEKVVNFSFDGQPAELKHGSVVIAAITSCTNTSNPSVMLGAGLVAKKACDLGLQVKPWIKTSLAPGSGVVTKYLLKSGLQEYLNEQGFNIVGYGCTTCIGNSGEINESVGAAITENDIVAAAVLSGNRNFEGRVHPLTRANYLASPPLVVAYALAGTVNIDFETEPIGKGKNGKDVFLRDIWPTTEEIAEVVQSSVLPDMFRATYESITKGNPMWNKLSVPENTLYSWDPNSTYIHEPPYFKDMTMDPPGPHNVKDAYCLLNFGDSITTDHISPAGNIQKDSPAAKFLMERGVDRKDFNSYGSRRGNDEIMARGTFANIRIVNKLMNGEVGPKTVHIPSGEKLSVFDAAMRYKSSGEDTIILAGAEYGSGSSRDWAAKGPMLQGVKAVIAKSFERIHRSNLVGMGIIPLCFKSGEDADTLGLTGHERYTIHLPTDISEIRPGQDVTVTTDNGKSFTCTVRFDTEVELAYFNHGGILPYVIRNLSKQ
For B3, the binding result in assay [4] is on record as “binds”.

B4: mitochondrial malate dehydrogenase (mMDH2) fused to the N-terminal Venus fragment (hygII-VYNE N173 construct) (enzyme, UniProt Q9LKA3 23-341)
chain: ASESVPDRKVVILGAAGGIGQPLSLLMKLNPLVSSLSLYDIANTPGVAADVGHINTRSQVSGYMGDDDLGKALEGADLVIIPAGVPRKPGMTRDDLFNINAGIVKNLSIAIAKYCPQALVNMISNPVNSTVPIAAEIFKKAGTYDEKKLFGVTTLDVVRARTFYAGKSDVNVAEVNVPVVGGHAGITILPLFSQASPQANLSDDLIRALTKRTQDGGTEVVEAKAGKGSATLSMAYAGALFADACLKGLNGVPNVVECSFVQSTITELPFFASKVRLGKNGVEEVLDLGPLSDFEKEGLEALKAELKSSIEKGIKFANQ
For the molecule B4, the binding result in assay [3] is “binds”.

B5: citrate synthase (CSY5) fused to the N-terminal Venus fragment (hygII-VYNE N173 construct) (enzyme, UniProt Q9M1D3 26-464)
chain: SVRWLHSSELDLKSQMQEIIPEQQDRLKKLKSEQGKVPVGNITVDMVLGGMRGMTGLLWETSLLDADEGIRFRGMSIPECQKILPSAESGEEPLPESLLWLLLTGKVPTKEQANALSTELAHRAAVPAIDALPSTAHPMTQFASGVMALQVQSEFQKAYEQGDISKSKYWEPTFEDALNLIARVPVVASYVYRRMYKDGSIIPLDDSLDYGANFSHMLGFDSPQMKELMRLYVTIHSDHEGGNVSAHAGHLVGSALSDPYLSFAAALNGLAGPLHGLANQEVLLWIKLVVEECGESISKEQLKDYVWKTLNSGKVVPGYGHGVLRKTDPRYICQREFALKHLPDDPLFQLVSKLYEVVPPILTELGKVKNPWPNVDAHSGVLLNYYGLTEARYYTVLFGVSRSLGICSQLIWDRALGLPLERPKSVNMDWLDNFTRLNR
On to B5, for which the binding entry in assay [3] is reported as “no binding”.

B6: citrate synthase (CSY5) fused to the N-terminal Venus fragment (pUC-VYNE N173 construct) (enzyme, UniProt Q9M1D3 26-464)
chain: B5 chain
Consider B6, for which, in assay [4], the binding result was “no binding”.

(Values after publication PMC10346264.)
